Laboratory results reported in publication PMC4336329 (PLoS ONE, 2015).
Among all 310,000 compounds or so, about 14,000 (4.5%) showed an effect of 50% or more. Effects have a minus sign here. The list shows a part of the results.

target: human ether-à-go-go-related gene (hERG) potassium channel (human, UniProt Q12809); experiment: primary screen, population patch clamp on CHO cells stably expressing hERG
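Further: peak tail current of the secondary pulse compared with the same well before compound.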

Chain of human ether-à-go-go-related gene (hERG) potassium channel (Q12809 whole entry, looked up): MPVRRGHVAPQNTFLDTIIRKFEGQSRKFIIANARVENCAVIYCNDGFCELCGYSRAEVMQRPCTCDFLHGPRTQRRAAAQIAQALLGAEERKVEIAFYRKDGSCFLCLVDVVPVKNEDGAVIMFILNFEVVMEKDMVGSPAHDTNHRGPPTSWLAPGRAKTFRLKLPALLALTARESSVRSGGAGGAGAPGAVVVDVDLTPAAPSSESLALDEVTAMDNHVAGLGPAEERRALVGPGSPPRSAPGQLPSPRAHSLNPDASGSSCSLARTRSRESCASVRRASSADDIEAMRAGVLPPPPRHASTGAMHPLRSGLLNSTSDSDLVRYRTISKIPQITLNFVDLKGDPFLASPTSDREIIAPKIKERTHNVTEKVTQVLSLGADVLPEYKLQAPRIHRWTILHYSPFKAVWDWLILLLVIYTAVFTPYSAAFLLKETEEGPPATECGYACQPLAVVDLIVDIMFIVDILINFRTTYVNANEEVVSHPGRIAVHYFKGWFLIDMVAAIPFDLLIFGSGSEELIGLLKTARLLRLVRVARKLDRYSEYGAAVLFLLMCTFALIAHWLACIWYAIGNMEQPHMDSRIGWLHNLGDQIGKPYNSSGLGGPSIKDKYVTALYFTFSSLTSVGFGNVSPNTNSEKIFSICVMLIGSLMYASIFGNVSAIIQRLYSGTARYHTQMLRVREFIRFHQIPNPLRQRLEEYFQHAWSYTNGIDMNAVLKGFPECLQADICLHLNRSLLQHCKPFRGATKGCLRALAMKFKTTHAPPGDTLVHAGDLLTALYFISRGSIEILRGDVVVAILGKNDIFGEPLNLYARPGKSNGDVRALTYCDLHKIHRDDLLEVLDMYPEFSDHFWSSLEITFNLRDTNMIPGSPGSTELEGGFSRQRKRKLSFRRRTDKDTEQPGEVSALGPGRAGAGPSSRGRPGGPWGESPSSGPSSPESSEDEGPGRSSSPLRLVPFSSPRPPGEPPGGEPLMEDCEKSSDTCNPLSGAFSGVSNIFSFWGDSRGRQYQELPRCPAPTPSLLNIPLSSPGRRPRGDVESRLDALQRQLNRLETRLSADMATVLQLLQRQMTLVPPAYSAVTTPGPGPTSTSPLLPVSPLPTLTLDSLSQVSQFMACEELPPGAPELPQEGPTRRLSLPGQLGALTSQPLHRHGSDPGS

Row | SMILES | hERG current change (%, negative = inhibition) at 10uM [%]
1 | O=C(COC(=O)C1(c2ccccc2)CC1)NNC(=O)c1ccccc1 | -2.39
2 | Oc1ccccc1C1=NN(c2ccccc2)C(c2ccc(F)cc2)C1 (centres unmarked) | 9.68
3 | Cc1ccc(CCNC(=O)C2CCC(=O)N(Cc3ccccc3F)C2)o1 (centres unmarked) | -10.9
4 | O=C(Nc1ccon1)Nc1ccccc1C(F)(F)F | 12.6
5 | Cn1c(CC(=O)Nc2ccccc2)nnc1SCCOc1ccccc1 | 2.08
6 | Cc1cc(C)n(CCc2nc(-c3cc4ccccc4o3)cs2)n1 | 6.68
7 | c1ccc(-c2cc3ccccc3nc2N2CCCC2)cc1 | 15.4
8 | Cc1cccc2sc(NC(=O)C3CCN(S(=O)(=O)c4cc([N+](=O)[O-])ccc4Cl)CC3)nc12 | -2.42
9 | CC1CC(=O)c2cnc(Nc3cccc(C(F)(F)F)c3)nc2C1 (centres unmarked) | 3.91
10 | CN1CCN(S(=O)(=O)c2ccc(NC(=O)c3cccc(F)c3)cc2)CC1 | 1.26
11 | CCOc1ccc(N(CC(=O)N2CCN(c3ccccc3F)CC2)S(=O)(=O)c2c(C)noc2C)cc1 | 11.4
12 | CC(=O)NCCCCCCNC(C)=O | 3.44
13 | Cn1c(=O)c(=O)n(C)c2cc(S(=O)(=O)N3CCN(Cc4ccccc4)CC3)ccc21 | -63.4
14 | COc1ccc(-c2nc(CN3CCC(C(=O)N4CCOCC4)CC3)c(C)o2)c(OC)c1 | 7.46
15 | CC(=O)c1cccc(NC(=O)c2ccc([N+](=O)[O-])o2)c1 | -28.7
16 | O=C(NNC(=O)C1[C@H]2CCCC[C@@H]12)c1ccc(=O)oc1 (some centres unmarked) | 17.7
17 | CCOc1cccc(/C(O)=C2/C(=O)C(=O)N(CCN3CCOCC3)C2c2cccnc2)c1 (centres unmarked) | 3.77
18 | CC(=O)c1ccc(N(C(=O)CNC(=O)c2ccco2)C(C(=O)NCC2CCCO2)c2ccccc2)cc1 (centres unmarked) | -1.08
19 | COc1ccc(CN(C)C(=O)c2cccc(C(=O)N(C)Cc3ccc(OC)cc3)c2)cc1 | -65.6
20 | CC(=C\C(=O)O)/C(=C/c1ccc(C)o1)C(=O)O | -3.89
21 | Cc1ccc(NC(=O)c2sc3nc4c(c(-c5ccco5)c3c2N)CCC4)cc1 | 11.6
22 | CCOc1ccc(-c2[nH]nc3c2C(c2ccc(O)cc2)C(C#N)=C(N)O3)cc1 (centres unmarked) | 4.41

Row | SMILES | hERG current change (%, negative = inhibition) at 10uM [%]
23 | CCOc1ccccc1C(=O)NCC(=O)NC(C)c1ccc(-n2ccnc2)cc1 (centres unmarked) | -70.9
24 | C[C@H](CCC(=O)NCC(=O)[O-])[C@H]1CC[C@H]2[C@@H]3[C@H](O)C[C@@H]4C[C@H](O)CC[C@]4(C)[C@H]3C[C@H](O)[C@]12C.O.[Na+] | -21.4
25 | COc1ccccc1NC1=NC(CO)(CO)CS1 | 19.7
26 | O=C(c1ccccc1NS(=O)(=O)c1cccs1)N1CCCC1 | 2.73
27 | COCCn1c(C)cc(C(=O)CSc2nc3nc(C)cc(C)n3n2)c1C | -10.5
28 | Cc1ccc(OCCOC(=O)Cn2nc(C)c([N+](=O)[O-])c2C)cc1 | 15.7
29 | Cc1[nH]c(C)c(S(=O)(=O)N2CCN(c3ccc(Cl)cc3)CC2)c1C(=O)N1CCCC1 | -66.4
30 | C#CCN(C#N)c1nc(NCC)nc(NC(C)C)n1 | -5.95
31 | COCCN(C(=O)CSc1nc2ccccc2o1)c1c(N)n(Cc2ccccc2)c(=O)[nH]c1=O | -14.6
32 | COc1ccc(NC(=O)[C@@]2(CC(=O)O)CC(/C=C/c3ccccc3)=NO2)cc1 | 34
33 | COc1cccc(C2c3c(oc4ccccc4c3=O)C(=O)N2c2ccccn2)c1 (centres unmarked) | -2.62
34 | CCCN1CCN(C2CCCCC2NS(=O)(=O)c2ccccc2)CC1 (centres unmarked) | -44.7
35 | CC(C)(C)N1NC2(CCCCC2)NC1=S | 9.17
36 | Cc1cc(C)n(-c2ccc(C(=O)OC(C)C)cc2)n1 | -8.17
37 | CC(C)C[C@H](NC(=O)c1nc[nH]c1C(=O)N1CCC(C)CC1)C(=O)OCc1ccccc1 | 8.25
38 | CCCCN1C(N)=NC[C@@H]1C(C)O (some centres unmarked) | 15.9
39 | NNC(=O)c1cc2cc3ccccc3nc2s1 | 1.41
40 | COc1ccc(NC(=S)NC2CCN(Cc3ccccc3)CC2)cc1OC | 70.7
41 | CNC(=O)c1cccc(NC(=O)C(C)c2ccc3cc(OC)ccc3c2)c1 (centres unmarked) | -7.49
42 | COc1cc(CCC(=O)NCc2ccc(F)cc2)cc(OC)c1OC | 12.1
43 | CC1CCN(CCCNC(=O)c2n[nH]c(=O)c3ccccc23)CC1 | -3.17
44 | O=C(Nc1ccccc1Cl)c1ccccc1Oc1ccc(C(F)(F)F)cc1[N+](=O)[O-] | 6.26

Row | SMILES | hERG current change (%, negative = inhibition) at 10uM [%]
45 | COc1ccc(NC(=O)c2sc(NC(=O)COc3ccccc3)nc2C)cc1 | 1.76
46 | Cc1cc(NC(=O)CCC(=O)N(c2ccc(F)cc2)C(C(=O)NC2CCCC2)c2ccccc2)no1 (centres unmarked) | 29.1
47 | CCn1nc(C(=O)NCc2ccco2)c(Cl)c1Cl | -9.51
48 | COCCCN(CC(=O)O)S(=O)(=O)c1ccccc1 | 42.2
49 | Cc1cc(C)nc(NC(=O)CCCC(=O)O)c1 | 12.1
50 | COc1ccc(/C=N/NC(=O)c2cccc(NC(C)=O)c2)c(OC)c1 | 9.99
51 | CS(=O)(=O)N(CC(=O)NCCSCc1ccccc1)c1ccc2c(c1)OCO2 | -10.6
52 | CCS(=O)(=O)N1CCN(C(=O)c2cc(OC)cc(OC)c2)CC1 | 1.51
53 | COc1ccc(NC(=O)c2cccc(Oc3ccc([N+](=O)[O-])cc3Cl)c2)cc1 | 14.2
54 | CCOC(=O)N1N=C(c2ccccc2)CC1(O)C(F)(F)F (centres unmarked) | 6.15
55 | CC(C)CNC(=S)NC(=O)c1ccc(Cl)cc1Cl | 3.88
56 | CS(=O)(=O)N(CC(=O)Nc1ccc2c(c1)OCO2)c1ccc(Cl)cc1 | -2.71
57 | O=C(c1ccccc1)N1N=C(c2ccc(F)cc2)CC1(O)C(F)(F)F (centres unmarked) | -5.31
58 | O=C(CCl)Nc1cc(S(=O)(=O)N2CCOCC2)ccc1N1CCOCC1 | 11.9
59 | CC(C)c1ccc(S(=O)(=O)N2CCN(C(=O)c3cccc(F)c3)CC2)cc1 | -15.4
60 | Nc1cnn(C2OC(CO)C(O)C2O)c(=O)n1 (centres unmarked) | 5.84
61 | COc1ccc(NC(=O)NC2CC3CCCC(C2)N3Cc2ccccc2)cc1 (centres unmarked) | -50.1
62 | COc1cc(CCCN2C(=O)C(=O)NC[C@@H]2Cc2ccc(O)cc2)cc(OC)c1OC | 21.6
63 | CCCC(=O)Nc1ccc(OCC(O)CNC(C)C)c(C(C)=O)c1.Cl (centres unmarked) | 3.34
64 | CCOC(=O)N1CCN(C(=O)c2cn(C)c3ccc(S(=O)(=O)N4CCCC4)cc3c2=O)CC1 | 3.16
65 | CCOC(=O)c1[nH]c(C)c(C(=O)NCCc2ccc(OC)cc2)c1C | 12.6
66 | Cc1ccc2nc(N(CCCN(C)C)C(=O)c3cc(-c4cccs4)nc4ccccc34)sc2c1.Cl | -6.21

Row | SMILES | hERG current change (%, negative = inhibition) at 10uM [%]
67 | O=C(Nc1ccc(F)c(Cl)c1)C1CC(=O)N(Cc2ccco2)C1 (centres unmarked) | -23.1
68 | CC(C)C[C@@]12C(=O)N(c3cccc(Br)c3)C(=O)N1[C@H](c1ccc(Cl)cc1)[C@@H]1C(=O)N(C3CCCCC3)C(=O)[C@@H]12 | -6.89
69 | Cc1csc(NC(=O)CSc2nncs2)n1 | 13.6
70 | COc1ccc(C(=O)N/C(=C/c2cccnc2)C(=O)NCc2ccco2)cc1OC | 9.12
71 | CCNC(=O)CSc1nc2sccc2c(=O)n1-c1ccccc1 | 5.62
72 | COc1cc(NC(=O)C2=C(N3CCOCC3)/C(=C\c3ccc(Cl)cc3Cl)CC2)cc(OC)c1OC | 3.81
73 | N#Cc1ccc(Oc2nc(Nc3ccc(F)cc3)nc(N3CCCC3)n2)cc1 | 1.63
74 | CC(C)N(C(=O)Nc1ccc2nsnc2c1)C(C)C | 0.592
75 | Nc1nonc1-n1nnc(C(=O)N/N=C/c2ccccc2)c1CSc1ccc(Cl)cc1 | -23.6
76 | O=C(NCc1ccccc1)c1ccc[nH+]c1.[Cl-] | 16.1
77 | Cc1ccc(-n2nc(C(=O)c3ccccc3)n3c(=O)c(Cc4ccccc4)nnc23)cc1 | -2.55
78 | COc1ccc(N2C(=O)C(Cl)=C(Nc3c(C)n(C)n(-c4ccccc4)c3=O)C2=O)cc1 | -8.05
79 | O=C(CCl)Nc1cc(-c2ccccc2)nn1-c1ccccc1 | -45.2
80 | CC(=O)Nc1nc(C)c(Oc2ccc(C)cc2)c(=O)[nH]1 | -1.03
81 | CCN(CC)S(=O)(=O)c1ccc(NC(=O)COC(=O)c2cnc(C)cn2)cc1 | -1.5
82 | CC1(C)CCc2cc(-c3ccnc(=S)[nH]3)ccc2O1 | 30.1
83 | Cc1csc(N/N=C/c2c(F)cccc2Cl)n1 | 17.8
84 | O=C(Cc1cccs1)Nc1nc2c(ccc3ccccc32)s1 | 18
85 | CCOCC(=O)Nc1cccc(OC)c1 | -7.9
86 | O=C1C(=O)N(CCO)C(c2ccccc2[N+](=O)[O-])/C1=C(\O)c1ccccc1 (centres unmarked) | 14
